This is an account of results in paper PMC4336329 (PLoS ONE, 2015).

Hit rate of the full screen: of about 310,000 compounds, about 2,200 (0.71%) showed an effect of 50% or more. Effects have a minus sign here. The list shows a part of the results.

In the test the target is human ether-à-go-go-related gene (hERG) potassium channel (human, UniProt Q12809). Nature of the test: primary screen, population patch clamp on CHO cells stably expressing hERG.
human ether-à-go-go-related gene (hERG) potassium channel, sequence (Q12809 whole entry, looked up): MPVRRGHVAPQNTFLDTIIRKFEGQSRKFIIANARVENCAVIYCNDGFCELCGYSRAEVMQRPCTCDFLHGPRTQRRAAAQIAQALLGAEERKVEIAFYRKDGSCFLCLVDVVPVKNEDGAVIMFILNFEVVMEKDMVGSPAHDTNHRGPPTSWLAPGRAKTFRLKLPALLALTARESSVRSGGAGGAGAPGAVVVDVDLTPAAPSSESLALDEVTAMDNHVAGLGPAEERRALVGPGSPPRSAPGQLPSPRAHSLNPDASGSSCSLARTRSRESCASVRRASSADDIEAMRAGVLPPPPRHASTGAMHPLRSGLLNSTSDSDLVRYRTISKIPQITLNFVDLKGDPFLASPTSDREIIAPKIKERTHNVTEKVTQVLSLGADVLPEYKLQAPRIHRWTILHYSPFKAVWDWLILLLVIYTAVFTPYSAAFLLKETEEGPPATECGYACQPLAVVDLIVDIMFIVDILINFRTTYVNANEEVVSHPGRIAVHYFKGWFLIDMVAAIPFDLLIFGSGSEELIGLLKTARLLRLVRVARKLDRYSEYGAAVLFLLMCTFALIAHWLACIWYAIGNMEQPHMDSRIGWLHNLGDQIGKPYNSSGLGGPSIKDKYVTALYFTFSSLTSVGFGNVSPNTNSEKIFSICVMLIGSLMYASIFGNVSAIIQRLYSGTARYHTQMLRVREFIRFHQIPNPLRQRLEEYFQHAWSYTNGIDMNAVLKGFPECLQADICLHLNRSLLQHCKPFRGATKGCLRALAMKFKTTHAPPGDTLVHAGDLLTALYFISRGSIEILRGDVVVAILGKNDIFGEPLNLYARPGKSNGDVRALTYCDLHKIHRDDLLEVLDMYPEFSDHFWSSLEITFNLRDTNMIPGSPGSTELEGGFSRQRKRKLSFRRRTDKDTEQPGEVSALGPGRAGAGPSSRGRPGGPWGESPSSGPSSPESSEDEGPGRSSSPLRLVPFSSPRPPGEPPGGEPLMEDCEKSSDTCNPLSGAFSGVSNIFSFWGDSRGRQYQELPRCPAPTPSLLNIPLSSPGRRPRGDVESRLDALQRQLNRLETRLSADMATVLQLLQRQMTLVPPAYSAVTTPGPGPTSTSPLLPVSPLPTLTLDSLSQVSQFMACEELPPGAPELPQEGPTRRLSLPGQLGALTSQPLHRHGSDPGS
`Cc1cc(NC(=O)C2CCCCC2C(=O)O)ccc1NC(=O)c1ccccc1` (centres unmarked): the “hERG current change (%, negative = inhibition) at 1uM” value is 0.369%.
For the compound `Cn1c(=O)[nH]c(=O)c2c1nc(NCCO)n2CCOc1ccccc1`, the “hERG current change (%, negative = inhibition) at 1uM” value worked out at 8.91%.
For `Nc1nc(SCC(=O)N2CCN(S(=O)(=O)c3ccc(Cl)cc3)CC2)n[nH]1` the value was 19.1%; for `COc1nc(Oc2ccc(C(=O)OCC(N)=O)cc2)nc(N(C)C)n1`, 12.2%; for `O=C(CCCN1C(=O)c2ccccc2C1=O)Nc1ccc(S(=O)(=O)N2CCCCC2)cc1`, -3.33%.
The figure for `CN1C(CC(O)c2ccccc2)CCCC1CC(O)c1ccccc1.Cl` (centres unmarked) is -46.3%; for `Cc1ccc(C)c(S(=O)(=O)N2CCN(C(=O)CNC(=O)c3ccc4ccccc4c3)CC2)c1` it is 7.43%.
For `CC(C)(C)c1ccc(/C=N/NC(=O)C[n+]2ccccc2)cc1.[Cl-]` the value was 11.9%; for `CC1(C)OC(=O)C(=CNCCc2ccc(O)cc2)C(=O)O1`, 18.5%.
As for `CC(=O)NC(Cc1c[nH]c2ccccc12)C(=O)OCC(=O)Nc1ccc2c(c1)OCO2` (centres unmarked), the “hERG current change (%, negative = inhibition) at 1uM” value was 12.4%.
The figure for `Cc1ccc2nc(N3CCC(C(=O)N4CCC5(CC4)OCCO5)CC3)sc2c1` is -0.516%; for `CCCCN(C)S(=O)(=O)c1ccc(C(=O)N=c2sc3cc(NC(C)=O)ccc3n2C)cc1` it is 13.8%.
For `CC(=O)c1cc(-c2ccccc2)n(CC(=O)Nc2cc(C)cc(C)c2)c1C` the value was 18.5%.
The figure for `O=C(O)CCCn1c(O)c(C=C2N=c3ccccc3=N2)sc1=S` is 13.7%.
For `O=C(c1cccnc1NCc1ccc(F)cc1)N1CCOCC1`, the “hERG current change (%, negative = inhibition) at 1uM” value is given as 5.16%.
For `Cl.O=C(c1ccccc1)c1coc2ccc(O)c(CN3CCOCC3)c12` the value was -21%.
On to `CCOc1ccc(CNC(=O)CCS(=O)(=O)Cc2cccc(Cl)c2)cc1OC`, for which the “hERG current change (%, negative = inhibition) at 1uM” value came to 1.14%.
The figure for `O=C1NC(O)(c2ccccc2)Oc2ccccc21` (centres unmarked) is 16.3%.
For `COc1ccc(CCNC(=O)c2n[nH]c(=O)c3ccccc23)cc1` the value was 16.9%.
The figure for `CNS(=O)(=O)c1ccc(NC(=O)C2CC(=O)N(c3ccc(Cl)cc3)C2)cc1` (centres unmarked) is 8.98%.
As to `CCC1(C(=O)OC)NC(c2ccccc2OC)C2C(=O)N(C)C(=O)C21` (centres unmarked), the “hERG current change (%, negative = inhibition) at 1uM” value was determined as 16%.
The figure for `S=C(NCc1ccco1)N1CCN(Cc2ccc(Cl)cc2Cl)CC1` is 1.56%; for `O=C(c1cnsn1)N1CCN(c2ccccc2)CC1` it is 6.62%; for `CCCC(C(=O)n1nc(C)cc1C)C(NS(=O)(=O)c1ccc(C)cc1)c1ccccc1` (centres unmarked) it is 13.7%.
For `COc1ccc(CNC(=O)Nc2ccc(C)cc2)cc1` the value was 11.2%; for `COc1ccc2[nH]c(CN3CCN(CC=C(C)C)C(CCO)C3)c(C)c2c1` (centres unmarked), 10.7%; for `CCOC(=O)C1CCN(Cc2ccc(OC)c(C)c2OC)CC1`, 10.3%.
The figure for `Cc1ccccc1NC(=O)NC1CCS(=O)(=O)C1` (centres unmarked) is 13.3%; for `O=C1CC(Cc2ccc(Cl)cc2)C(=O)N1c1ccccn1` (centres unmarked) it is 9.22%.
With `Cc1c(NC(=O)C(=O)/C=C(\O)c2ccc(Cl)cc2)c(=O)n(-c2ccccc2)n1C`, the “hERG current change (%, negative = inhibition) at 1uM” value is given as 7.69%.
For `CCN(CC)P(=O)(NC(=O)c1cccn1C)N(CC)CC` the value was 1.32%.
For `CCOC(=O)c1c(C)n(C)c2ccc(O)c(S(=O)(=O)c3ccccc3)c12` the value was -4.53%; for `Cn1c(=O)cc(SCC(=O)Nc2ccccn2)c2ccccc21`, 11.4%.
The figure for `Cc1cc2ccccn2c1C(=O)c1ccccc1F` is 8.39%; for `CCOc1ccccc1NC(=O)CC1Nc2ccccc2NC1=O` (centres unmarked) it is 6.06%; for `c1cnc(SCCOc2cccc3ccccc23)nc1` it is -4.6%.
As to `O=C(NCC1CCCO1)c1onc(CSc2ccc(F)cc2)c1C(=O)O` (centres unmarked), the “hERG current change (%, negative = inhibition) at 1uM” value stood at 14.1%.
On to `CC(C)CC(C(=O)OCC(=O)Nc1cccc(Cl)c1)N1C(=O)C2CC=CCC2C1=O` (centres unmarked), for which the “hERG current change (%, negative = inhibition) at 1uM” value came out at 13.3%.
For `O=C(N/N=C/C(Cl)=C/c1ccc([N+](=O)[O-])cc1)C(=O)Nc1ccc(C(=O)O)cc1` the value was 9.4%; for `Cc1ccc(-c2cnc3cc(C)nn3c2)cc1`, 12.6%; for `CCC(CC)CN1CCN=C1Nc1ccccc1`, 5.25%.
The figure for `Cc1ccc(S(=O)(=O)Nc2nc3ccccc3nc2NCc2ccc3c(c2)OCO3)cc1C` is 2.39%; for `Cc1ccc(C(=O)N/C(=C\c2ccc(-c3cccc([N+](=O)[O-])c3)o2)C(=O)NCCCN(C)C)cc1` it is -27.5%.
The figure for `CCOc1ccc(S(=O)(=O)NCCC(=O)NCC2(N3CCCCC3)CCCCC2)cc1` is -0.565%.
